About 10 (0.005%) of roughly 200,000 compounds were called active. Inconclusive results, whose numbers are uncertain, are shown with a selection of clear calls. Calls follow the shape of the dose curve; as a rule, active = well fitted inhibition curve with a large enough effect; inconclusive = small, poorly fitted or top-dose-only effect, or effect the other way, or another doubt; inactive = no such curve, though single readings can be large or run the other way. No potency is given beside an inconclusive call; the fits are too rough. Peptide text beside a SMILES is read from it. * marks the point of attachment. Boc = CC(C)(C)OC(=O)*; Bn = c1ccc(C*)cc1
target: Lysosomal alpha-glucosidase (Homo sapiens) (UniProt P10253); test: qHTS Assay for Inhibitors of Human alpha-Glucosidase as a Potential Chaperone Treatment of Pompe Disease; settings: purified human GAA, 4-MU-alpha-glucoside fluorescence; activity change, negative = inhibition: at 76.9 µM (top of the series) unless noted;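 as to activity change, negative = inhibition: plate controls were uninhibited enzyme wells for no effect and no-enzyme background for full effect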
In short: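 Fluorescence at Ex 365/Em 440 nm from 4-methylumbelliferone reported enzyme activity after 20 min at room temperature. Reactions used 4 nM enzyme and 400 uM substrate at pH 5.0; curves fitted with the Hill equation.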
Potency is read from the fitted curve at half-maximal effect; tags tell the direction and shape of the fitted curve.

Q: For `Clc1ccc(CSc2nnc(Cn3cnc4ccccc43)o2)cc1`, which Potency is on record?
A: inconclusive [inhibitor, full curve]

Q: Which Potency does the source give for `COc1ccc(N2CCN(Cc3cc(=O)oc4cc(-c5ccccc5)c(O)cc34)CC2)cc1` here?
A: inconclusive [inhibitor, single point]

Q: `O=C1NCCCC2c3cc(O)c4ccccc4c3OC12N1CCCCC1` (stereo not drawn) was tested. Which “activity change, negative = inhibition” value did it give?
A: inactive: 10.5%

Q: For `CC(C)CC(NC(=O)C(CC(C)C)NC(=O)C(Cc1ccc(OCc2ccccc2)cc1)NC(=O)OC(C)(C)C)C(N)=O` (stereo not drawn) (Boc-Tyr(Bn)-Leu-Leu-NH2; configuration not given here), which activity change, negative = inhibition is on record?
A: inconclusive: 23.5% [activator]

Q: `CC1=C(c2ccccc2)[N+](=O)C2(CCCC2)N1[O-]` was tested. Which activity change, negative = inhibition did it give?
A: inconclusive: -15.9% [inhibitor]

Q: `CC(=O)NN1C(=O)/C(=C/c2ccc(Br)o2)SC1=S` was tested. Which Potency did it give?
A: inconclusive [inhibitor, single point]

Q: With `Cc1sc2nc(SCC(=O)OC(C)C)n(C)c(=O)c2c1C` as the compound, how does the Potency read?
A: inconclusive [inhibitor, single point]

Q: For `O=C(COC(=O)c1cc(-c2cccs2)nc2ccccc12)NCc1ccco1`, which Potency is on record?
A: inconclusive [activator, single point]

Q: `Cn1c(=O)c(C(=S)NC(=O)C2CC2)c(N)n(Cc2ccccc2)c1=O` was tested. Which Potency did it give?
A: inconclusive [inhibitor, single point]

Q: Which Potency does the source give for `CCOC(=O)N1CCN(S(=O)(=O)c2ccc(C(=O)Nc3ccc4c(c3)C(=O)NC4=O)cc2)CC1` here?
A: inconclusive [activator, full curve]

Q: With `CC(=O)Oc1ccc2c(C)c(CC(C)O)c(=O)oc2c1` (stereo not drawn) as the compound, how does the Potency read?
A: inconclusive [activator, partial curve]

Q: Which Potency does the source give for `CC1CCCC/C1=N\NC(=S)Nc1cccnc1` (stereo not drawn) here?
A: inconclusive [inhibitor, single point]

Q: For `O=c1oc2ccccc2c(O)c1Cc1cc(Cl)c2cccnc2c1O`, which Potency is on record?
A: inconclusive [inhibitor, full curve]

Q: `COc1cccc(CC2(CO)CCCN(Cc3ccccc3-c3ccco3)C2)c1` (stereo not drawn) was tested. Which activity change, negative = inhibition did it give?
A: inconclusive: -17.2% [inhibitor]

Q: With `CC(C)CC(c1nnnn1C(C)C)N1CCN(c2cccc(Cl)c2)CC1` (stereo not drawn) as the compound, how does the Potency read?
A: inconclusive [inhibitor, partial curve, poor fit]

Q: With `CCCC(=O)Nc1nnc(-c2ccc3c(c2)OCCO3)o1` as the compound, how does the Potency read?
A: inconclusive [inhibitor, partial curve, poor fit]

Q: For `COc1ccc2c(c1)c(=O)c(C(=O)c1ccc(Cl)cc1)cn2CC(=O)Nc1ccc(F)cc1`, which Potency is on record?
A: inconclusive [inhibitor, partial curve]

Q: With `CC1CN(CCCCOc2cccc(Oc3ccccc3)c2)CC(C)O1` (stereo not drawn) as the compound, how does the Potency read?
A: inconclusive [activator, single point]

Q: With `COCCNS(=O)(=O)c1ccc(OCC(=O)OC)c(Cl)c1` as the compound, how does the Potency read?
A: inconclusive [inhibitor, single point]

Q: How did the Potency turn out when `O=C(c1ccco1)N1CCN(C(=O)c2cc3c(s2)-c2ccccc2OC3)CC1` was run?
A: inconclusive [activator, partial curve]

Q: Which activity change, negative = inhibition does the source give for `Cc1ccc2c(c1)cc(CN(Cc1cccnc1)C(=O)c1ccccc1)c1nnnn12` here?
A: inconclusive: 10.4% [activator]

Q: For `COCCn1nnnc1CN(Cc1cc2cc(OC)c(OC)cc2[nH]c1=O)C1CCCC1`, which Potency is on record?
A: inconclusive [activator, partial curve]

Q: For `CCCCCOC(=O)C1=C(C)NC(=O)NC1c1ccccc1OCC` (stereo not drawn), which activity change, negative = inhibition is on record?
A: inconclusive: -18% [inhibitor]

Q: `CCOC(=O)c1ccc(-n2c(=S)sc3c(=O)[nH]c(C)nc32)cc1` was tested. Which Potency did it give?
A: inconclusive [inhibitor, single point]

Q: `CCOCc1c(C(=O)Nc2cc(OCC)c(N3CCOCC3)cc2OCC)oc2ccccc12` was tested. Which Potency did it give?
A: inconclusive [inhibitor, single point]

Q: `O=C(N/N=C/c1cc([N+](=O)[O-])ccc1O)C1C2CCCCC21` (stereo not drawn) was tested. Which activity change, negative = inhibition did it give?
A: inconclusive: 2.72% [activator]

Q: For `CC1=Nc2ccc(C)cc2/C1=C/c1c(N)n2c(S(=O)(=O)C(C)C)nsc2nc1=O`, which Potency is on record?
A: inconclusive [inhibitor, partial curve]

Q: How did the activity change, negative = inhibition turn out when `CC(=O)C(N=Nc1ccccc1)(Sc1nnc(-c2ccccc2)n1-c1ccccc1)C(=O)Nc1ccccc1` (stereo not drawn) was run?
A: inconclusive: 6.63% [activator]

Q: For `CC(C)CN1C(=O)/C(=C/c2ccco2)NC1=S`, which Potency is on record?
A: inconclusive [inhibitor, partial curve]

Q: With `O=C(CSc1nnc(-c2ccc(S(=O)(=O)N3CCCC3)cc2)o1)NCc1ccco1` as the compound, how does the Potency read?
A: inconclusive [inhibitor, single point]

Q: With `O=C(Cn1cnc([N+](=O)[O-])c1)Nc1cc(Oc2ccc(Cl)cc2Cl)cc([N+](=O)[O-])c1` as the compound, how does the Potency read?
A: inconclusive [inhibitor, partial curve]

Q: With `CC(C)NC(=O)c1ccccc1NC(=O)CCS(=O)(=O)Cc1ccccc1` as the compound, how does the activity change, negative = inhibition read?
A: inconclusive: -17.9% [inhibitor]

Q: Which activity change, negative = inhibition does the source give for `N#CC(=C=[N-])c1nc2ccccc2nc1-[n+]1cccc(NC(=O)c2ccc(F)cc2)c1` here?
A: inactive: 2.49% [at 15.4 µM]

Q: How did the Potency turn out when `CCC(=O)OCCn1c(=O)c2cc3c(=O)n(CCOC(=O)CC)c(=O)c3cc2c1=O` was run?
A: inconclusive [inhibitor, single point]

Q: `CCN(CC)CCNC(=O)c1ccc(NC(=O)c2cn(-c3ccccc3)nc2-c2cccs2)cc1` was tested. Which Potency did it give?
A: inconclusive [inhibitor, single point]

Q: How did the “activity change, negative = inhibition” value turn out when `CN1CCc2nc(SCC(=O)Nc3cccc(F)c3)c(C#N)c(-c3cccs3)c2C1` was run?
A: inactive: -1.28%

Q: How did the activity change, negative = inhibition turn out when `Cn1ccnc1SCc1cn2ccccc2n1` was run?
A: inconclusive: -16.6% [inhibitor]

Q: How did the Potency turn out when `CCCOc1ccc2cc(-c3ccccn3)c(=O)oc2c1` was run?
A: inconclusive [activator, partial curve]

Q: How did the Potency turn out when `COC(=O)c1ccc(NC(=S)N2CCN(Cc3ccc(Cl)cc3)CC2)cc1` was run?
A: inconclusive [inhibitor, partial curve, poor fit]

Q: With `COc1ccc(-c2cnnc(N/N=C/c3ccc(O)c(OC)c3)n2)cc1` as the compound, how does the Potency read?
A: inconclusive [inhibitor, partial curve]

Q: For `CN1c2cccc3cccc(c23)N(C)C1c1cccs1`, which “activity change, negative = inhibition” value is on record?
A: inactive: 0.827%

Q: Which activity change, negative = inhibition does the source give for `Cc1ccc(-n2c(C)cc(/C=C(\C#N)C(=O)NCC3CCCO3)c2C)cc1` (stereo not drawn) here?
A: inconclusive: -19.3% [inhibitor]

Q: For `Cc1ccc(C)c(-n2c(-c3ccc4c(c3)OCO4)n[nH]c2=S)c1`, which Potency is on record?
A: inconclusive [inhibitor, single point]

Q: For `Cc1ccc(C)c(S(=O)(=O)N2C(=S)NC(=O)C2C(C)C)c1` (stereo not drawn), which Potency is on record?
A: inconclusive [inhibitor, partial curve]

Q: With `N/C(=N\c1nc2ccccc2o1)NC(=O)c1ccc(F)cc1` as the compound, how does the Potency read?
A: inconclusive [activator, single point]

Q: `Nc1ccc(-c2nc3ccc(C(=O)O)cc3s2)cc1` was tested. Which Potency did it give?
A: inconclusive [activator, partial curve]

Q: For `NC(=O)c1ccc(NC(=O)COC(=O)CCCN2C(=O)c3cccc4cccc(c34)C2=O)cc1`, which Potency is on record?
A: inconclusive [activator, single point]

Q: For `CCOC(=O)c1cnc2nc[nH]n2c1=O`, which activity change, negative = inhibition is on record?
A: inconclusive: 9.63% [activator]

Q: `O=C(CSc1ncnc2ccccc12)NCCCO` was tested. Which “activity change, negative = inhibition” value did it give?
A: inactive: -8.49%

Q: With `COc1ccc([N+](=O)[O-])cc1NC(=O)c1cn(-c2ccc(Cl)cc2)c(=O)c2ccccc12` as the compound, how does the activity change, negative = inhibition read?
A: inconclusive: -18.2% [inhibitor]

Q: With `CN(C)c1ccc(/C=N/NC(=O)c2nonc2N)cc1[N+](=O)[O-]` as the compound, how does the activity change, negative = inhibition read?
A: inconclusive: 4.82% [activator]

Q: `COc1cccc(NC(=O)C2C3CC4OC(=O)C2C4C3)c1` (stereo not drawn) was tested. Which activity change, negative = inhibition did it give?
A: inconclusive: 17.2% [activator]

Q: How did the Potency turn out when `CCC(C)NC(=O)CSc1nc2ccsc2c(=O)n1-c1ccc(OC)cc1` (stereo not drawn) was run?
A: inconclusive [inhibitor, single point]

Q: How did the Potency turn out when `CC(C)(C)c1ccccc1OCCCCCn1ccnc1` was run?
A: inconclusive [inhibitor, single point]

Q: For `NCCCCCc1nnc(SCC(=O)Nc2cccc(Cl)c2)o1`, which Potency is on record?
A: inconclusive [inhibitor, single point]

Q: Which Potency does the source give for `COCCNc1nc2ccccc2nc1NS(=O)(=O)c1ccc(C)cc1C` here?
A: inconclusive [inhibitor, single point]

Q: For `O=C(c1ccc2c3c(cccc13)CC2)C1CCCN(C(=O)c2cc[n+]([O-])cc2)C1` (stereo not drawn), which activity change, negative = inhibition is on record?
A: inconclusive: 18.1% [activator]

Q: How did the Potency turn out when `CN(C)C=Nc1ccc2nn(-c3ccccc3)nc2c1` was run?
A: inconclusive [activator, partial curve]

Q: Which Potency does the source give for `O=C(CSc1nnc(-c2ccc(F)cc2)o1)Nc1ccc(S(=O)(=O)N2CCCC2)cc1` here?
A: inconclusive [inhibitor, partial curve, poor fit]

Q: For `O=C(NCc1cccnc1)c1noc2c1CCCC2`, which Potency is on record?
A: inconclusive [inhibitor, single point]

Q: Which Potency does the source give for `CCN(c1ccccc1)S(=O)(=O)c1ccc(Cl)c(NC(=O)COC(=O)C2CC2C)c1` (stereo not drawn) here?
A: inconclusive [inhibitor, single point]

Q: Which activity change, negative = inhibition does the source give for `O=C(CCc1ccc(S(=O)(=O)N2CCOCC2)cc1)Oc1ccccc1` here?
A: inconclusive: -17.1% [inhibitor]

Q: `Cc1ccc(C)c2[nH]c(=O)c(CN(Cc3ccco3)C(=O)Nc3ccccc3)cc12` was tested. Which Potency did it give?
A: inconclusive [inhibitor, partial curve]
